PubChem BioAssay AID463173 (ICCB-Longwood Screening Facility, Harvard Medical School, 2010)
The campaign covered roughly 52,000 compounds. About 4,300 (8.3%) were called active. Rule as the data show it: active = survival mostly below about 52% (no sharp cut-off); inactive = mostly above about 56%. The list shows a part of the results.

test system: DeltatarO mutant; assay: S. aureus survival, RN4220 and DeltatarO strains – OD600, teichoic acid synthesis inhibitors, primary screen (AID 463173); details: S. aureus RN4220 wild type/DeltatarO growth, OD600, 18 h, stronger effect = lower value, screened at 18.75 µg/mL (by protocol)

| Compound | survival |
| --- | --- |
| CCOc1ccc(-c2ccc(NS(=O)(=O)c3cc(C)c(C)cc3C)cc2)nn1 | inactive: 94% |
| Cc1ccccc1CN1CCc2nc(Nc3ccc4c(c3)OCCO4)ncc2C1 | inactive: 86% |
| CCCOc1ccc(/C=N/NC(=O)CN2CCCCC2)cc1 | inactive: 98% |
| CCN(C(=O)COc1cc(=O)n(C)c2ccccc12)c1cccc(C(F)(F)F)c1 | inactive: 57% |
| Cc1coc2c(C)c3oc(=O)c(CC(=O)N4CCCCC4)c(C)c3cc12 | inactive: 79% |
| Cc1cc(C)cc(-n2c(SCC(=O)Nc3nnc(C)s3)nc3c([nH]c4ccccc43)c2=O)c1 | inactive: 68% |
| COC(=O)c1ccc(NC(=O)Cc2coc3cc(C)ccc23)cc1 | inactive: 91% |
| COc1ccc(-c2nc3nc(C)cc(Nc4ccc(C(C)=O)cc4)n3n2)cc1 | inactive: 54% |
| COc1ccccc1NC(=O)Cn1c(=O)n(Cc2ccccc2)c(=O)c2ccccc21 | inactive: 75% |
| CCN(CC)C(=O)CSc1nc2ccccc2c(=O)n1CC | inactive: 62% |
| CCn1c2ccccc2c2cc(C3C(C#N)=C(N)Oc4n[nH]c(C(C)C)c43)ccc21 (centres undefined) | active: 3% |
| COc1cccc(NC(=O)c2oc3ccccc3c2NC(=O)C23CC4CC(CC(C4)C2)C3)c1 | inactive: 75% |
| COc1ccc(CN2COc3ccc4c(C)cc(=O)oc4c3C2)cc1 | inactive: 73% |
| COc1cccc2c1Oc1nc(-c3ccccc3)nc(SCC(=O)N3CCCCC3)c1C2 | inactive: 100% |
| O=C(CCn1c(=O)c2cccn2c2ccc(F)cc21)NCCc1ccccc1Cl | inactive: 52% |
| COC(=O)c1ccc(NC(=O)Nc2nnc(N(C)C3CCCCC3)s2)cc1 | inactive: 82% |
| CCCOc1ccc(Nc2nc(SC)ncc2C(=O)OCC)cc1 | inactive: 65% |
| COc1ccccc1CNC(=O)Cn1c(-c2cccs2)cc2cc(F)ccc21 | inactive: 70% |
| CCOc1ccccc1NC(=O)Cn1nc2c3cc(F)ccc3n(Cc3cccc(C)c3)cc-2c1=O | inactive: 72% |
| O=C(CCS(=O)(=O)c1cc2c3c(c1)CCN3C(=O)CC2)NCc1ccc(Cl)cc1 | inactive: 71% |

| Compound | survival |
| --- | --- |
| COc1ccc(/C=C/c2nc(C#N)c(NC3CCCCC3)o2)cc1OC | active: 36% |
| COC(=O)CSc1ccc2nnc(CCNS(=O)(=O)c3ccc(C)cc3)n2n1 | inactive: 96% |
| CCOC(=O)C1=C(CN2CCN(c3ccccc3F)CC2)NC(=O)NC1c1ccc(OC)cc1 (centres undefined) | inactive: 70% |
| CCc1cccc(C)c1Nc1c(-c2cccc(O)c2)nc2cnccn12 | inactive: 62% |
| Cc1ccc(CNC(=O)CCc2c(C)nn(-c3ccc(N4CCCC4)nn3)c2C)cc1 | inactive: 112% |
| CCc1cc(S(=O)(=O)n2ccnc2)ccc1OC | inactive: 65% |
| COc1ccc(N2CCN(C(=O)Cc3noc4ccc(C)cc34)CC2)cc1 | active: 42% |
| CCc1ccc(NC(=O)Cn2ccn(-c3cccc(Cl)c3)c(=O)c2=O)cc1 | inactive: 61% |
| COc1ccc(C(=O)N2CCC(c3ccncc3)CC2)cc1OC | active: -5% |
| O=C(CN1C2=NCCCN2c2ccccc21)c1cccs1 | inactive: 81% |
| Cc1ccc(CN2CCc3nc(N4CCN(C)CC4)ncc3C2)cc1 | inactive: 80% |
| COc1cccc(NC(=O)CCc2nc(-c3cc(OC)c(OC)c(OC)c3)no2)c1 | inactive: 73% |
| COc1ccc(CCNC(=O)c2cc(-c3ccc(Cl)cc3)on2)cc1OC | inactive: 64% |
| Cc1ccc(C)c(NC(=O)C(=O)NCCc2csc(-c3cccc(F)c3)n2)c1 | inactive: 84% |
| Cn1c(=O)cc(SCC(=O)Nc2cccc(C#N)c2)c2ccc(Cl)cc21 | inactive: 84% |
| CCOC(=O)c1ccc(NC(=O)c2cc3c(=O)n(C)c4ccccc4c3n2C)cc1 | inactive: 71% |
| COc1cc2c(C(=O)N3CCN(c4ccc(C)cc4)C(C)C3)cn(CC(C)C)c(=O)c2cc1OC (centres undefined) | inactive: 47% |
| Cc1nc2ccccn2c(=O)c1NC(=O)c1ccccc1Cl | inactive: 131% |
| Cc1oc2c(c1C(=O)Nc1ccc(Cl)cc1F)C1=NCCN1C=N2 | inactive: 86% |
| COc1ccc(Cl)cc1C(=O)NCC(c1ccc(N(C)C)cc1)N1CCOCC1 (centres undefined) | inactive: 92% |

| Compound | survival |
| --- | --- |
| Cc1cccc(C)c1OCC(=O)N(Cc1ccc(Cl)cc1)CC1CCCO1 (centres undefined) | inactive: 79% |
| COc1ccc(Nc2nnc(-c3ccc(C)c(S(=O)(=O)N4CCN(C)CC4)c3)c3ccccc23)cc1 | inactive: 89% |
| Cc1nc2sccn2c(=O)c1S(=O)(=O)NCc1ccccc1 | inactive: 77% |
| CCOc1ccccc1C1CC(=O)NC(C)=C1C(=O)OCc1ccc(C)cc1 (centres undefined) | inactive: 84% |
| COc1cc2c(cc1OC)C(COc1ccc3c(C)cc(=O)oc3c1)N(C(=O)c1ccc(C)c(C)c1)CC2 (centres undefined) | inactive: 74% |
| COC(=O)c1ccc(OC)c(CN2CCCN(Cc3ccc(C)cc3)S2(=O)=O)c1 | active: 20% |
| COc1ccc(S(=O)(=O)NCCc2cn3ccsc3n2)cc1OC | active: -1% |
| CCOc1ccc(N(Cc2cc3cc(C)ccc3[nH]c2=O)C(=O)c2cccc(Cl)c2)cc1 | inactive: 86% |
| O=C(O)CCCC1OC(CCCC(=O)O)OC(CCCC(=O)O)O1 (centres undefined) | inactive: 84% |
| CCOC(=O)C1CCN(CCC(=O)Nc2ccccc2Cl)CC1 | inactive: 165% |
| CC(C)c1nn2c(=O)cc(COC(=O)c3ccccc3NC(=O)c3cccs3)nc2s1 | inactive: 78% |
| Cn1c(=O)c2c(nc(NCCc3ccccc3)n2Cc2ccc(Cl)c(Cl)c2)n(C)c1=O | inactive: 57% |
| CCCN(Cc1cccs1)C(=O)Nc1ccccc1C | inactive: 79% |
| CC1CCCN(c2csc3ccccc3c2=O)C1 (centres undefined) | inactive: 69% |
| Cc1ccc(C(=O)N2c3ncnn3C3(CCCCC3)[C@@H]3CCCC[C@@H]32)cc1 | inactive: 86% |
| Cc1ccc2oc(=O)c(-c3nc4ccc(C)cc4[nH]3)cc2c1 | inactive: 106% |
| COc1ccc(OC)c(CNC(=O)CCc2c(C)nc3c(c2C)c(=O)n(C)c(=O)n3C)c1 | inactive: 89% |
| COc1cccc(OCC(=N)N)c1 | inactive: 85% |
| COc1ccc(Cl)cc1NC(=O)CSc1nnc(C)n2c1cc1sccc12 | inactive: 68% |
